Assay results published in patent publication US20250041455A1.

Target: mf TFRC ecto-mmh (REGN2054) (monkey (cyno)) (UniProt H9EXL1)
Experiment: SPR Biacore; anti-hFc-captured mAb; 100 nM mfTfR-mmh; 25C

B1: REGN17510 (H1H12839B) (antibody, human IgG1, kappa, V domains shown)
VH: QVQLVESGGGVVQPGRSLRLSCAASGFPFSNYVMYWVRQAPGKGLEWVALIFFDGKKNYHADSVKGRFTITRDNSKNMLYLQMNSLRPEDAAVYYCAKIHCPNGVCYKGYYGMDVWGQGTTVTVSS
VL: [here about 100 residues without letters]
100 nM Ag Bound (RU): 11 RU
